Data published in PubChem BioAssay AID588591 (National Center for Advancing Translational Sciences (NCATS), 2011).
Where “and” joins values, the source holds several entries; their conditions need not be identical. Identical values can stand only once. Hit rate of the full screen: of about 390,000 compounds, about 4,700 (1.2%) were called active. This list was built around the results that the source calls inconclusive (neither active nor inactive); the mix of calls is not that of the screen. Calls come from the whole dose curve; as a rule, active = well fitted inhibition curve with a large enough effect; inconclusive = small, poorly fitted or top-dose-only effect, or another doubt; inactive = no such curve, though single readings can be large or run the other way. A potency beside an inconclusive call is a rough fit, not a confirmed value. Some compounds were tested as several samples or in several runs, with calls that do not always agree.

target: DNA polymerase eta (Homo sapiens) (UniProt Q9Y253); assay: qHTS for Inhibitors of Polymerase Eta; conditions: recombinant Pol eta, fluorescent DNA replication assay; series mostly up to 114 µM
Chain of UniProt Q9Y253 (Q9Y253 whole entry, looked up): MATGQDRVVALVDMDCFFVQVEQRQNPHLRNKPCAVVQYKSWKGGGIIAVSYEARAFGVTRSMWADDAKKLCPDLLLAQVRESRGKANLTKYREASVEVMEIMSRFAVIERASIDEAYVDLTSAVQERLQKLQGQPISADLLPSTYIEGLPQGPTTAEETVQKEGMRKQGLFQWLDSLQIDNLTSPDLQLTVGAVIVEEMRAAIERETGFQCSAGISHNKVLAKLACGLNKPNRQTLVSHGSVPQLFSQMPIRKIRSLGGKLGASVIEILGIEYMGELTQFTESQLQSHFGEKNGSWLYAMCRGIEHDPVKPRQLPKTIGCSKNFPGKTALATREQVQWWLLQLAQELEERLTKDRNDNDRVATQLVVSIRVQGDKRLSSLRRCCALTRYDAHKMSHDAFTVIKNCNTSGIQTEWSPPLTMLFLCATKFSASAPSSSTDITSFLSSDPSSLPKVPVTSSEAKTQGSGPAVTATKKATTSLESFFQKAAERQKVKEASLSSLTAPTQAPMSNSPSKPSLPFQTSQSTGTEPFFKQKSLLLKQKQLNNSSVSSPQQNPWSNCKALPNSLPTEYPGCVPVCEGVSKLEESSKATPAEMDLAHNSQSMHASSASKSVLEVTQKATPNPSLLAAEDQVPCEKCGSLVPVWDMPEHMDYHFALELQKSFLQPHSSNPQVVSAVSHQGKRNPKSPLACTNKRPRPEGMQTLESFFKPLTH
Outline: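 Pol eta at 10 nM preincubated with compounds 15 min at room temperature; reaction started with fluorescent substrate (50 nM final) and read kinetically at 0 and 10 min.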
Potency is the fitted concentration of half-maximal effect; tags give direction and shape of the fitted curve.

SMILES | Potency
CC(=O)N1CCc2c(sc3nc(SCC(C)C)n(-c4ccc(C)c(Cl)c4)c(=O)c23)C1 | inconclusive: 70.8 µM [inhibitor, partial curve, poor fit]
CC(=O)C1=C(C)NC(=O)NC1c1cc(Br)ccc1OCC(N)=O (stereo not given) | inconclusive: 28.2 µM [inhibitor, partial curve, poor fit]
CCOC(=O)/C=C/C(=O)Nc1cccc([N+](=O)[O-])c1 | inactive
COc1cc(C2C(C#N)=C(N)Oc3cc(C)n(CCN4CCOCC4)c(=O)c32)cc(OC)c1OC (stereo not given) | inactive
CCc1nnc(NC(=O)CSc2nncc(=O)n2N)s1 | inconclusive: 56.2 µM [inhibitor, partial curve, poor fit]
CN(Cc1cnc2nc(N)nc(N)c2n1)c1ccc(C(=O)N[C@@H](CCC(=O)O)C(=O)O)cc1 | inactive and active: 31.6 µM
Cc1cc(NC(=O)CSc2nnc(-c3ccccc3F)n2N)no1 | inconclusive: 28.2 µM [inhibitor, partial curve, poor fit]
COc1ccccc1N1CCN(C(=O)c2cnn(-c3cccc(Cl)c3)c2C2CCN(C(=O)OC(C)(C)C)CC2)CC1 | inactive
CNc1ccc(Br)cc(C(=O)/C=C/c2ccc(OC)cc2OC)c1=O | active: 44.7 µM
Cn1nc(-c2ccccn2)nc2c(=O)n(C)c(=O)nc1-2 | active: 0.708 µM
CC(C)(C)OC(=O)C[C@@H]1C/C=C\C[C@H](CC(=O)NCCO)C(=O)N[C@H](Cc2ccccc2)COC1=O | inactive
COc1cc(/C=C/C(=O)c2c(O)ccc3c(C)cc(=O)oc23)ccc1O | inconclusive: 20 µM [inhibitor, partial curve]
CCOC(=O)c1c(C)oc2nc(C)nc(N3CCN(c4ccccc4F)CC3)c12 | inactive
Cc1ccc(-c2[nH]c3c(c2-c2c(-n4cccc4)n(C)c(=O)[nH]c2=O)c(=O)[nH]c(=O)n3C)cc1 | inconclusive: 79.4 µM [inhibitor, partial curve]
CCCC[N+](C)(C)CCC(=O)NC(C)(C)CS(=O)(=O)[O-] | active: 12.6 µM
O=S(=O)(NCC1CCN(Cc2ccccc2)CC1)c1ccccc1C(F)(F)F | inactive
S=C1Cc2ccccc2N1 | active: 25.1 µM
CC1=CCC2C(=O)N(C(C)c3ccccc3)C(=O)C2C1 (stereo not given) | inactive
Nc1ccc(O)c(-c2nc3ccccc3s2)c1 | inconclusive: 17.8 µM [inhibitor, partial curve, poor fit]
Cc1ccc(S(=O)(=O)/N=C2/NC(=O)/C(=C/c3cccnc3)S2)cc1 | inconclusive: 31.6 µM [inhibitor, partial curve]
